For six molecules, binding results are on record in PMC11675949.

By UniProt entry, the sequences of proteins in these tests, tags left out.
UniProt P15927: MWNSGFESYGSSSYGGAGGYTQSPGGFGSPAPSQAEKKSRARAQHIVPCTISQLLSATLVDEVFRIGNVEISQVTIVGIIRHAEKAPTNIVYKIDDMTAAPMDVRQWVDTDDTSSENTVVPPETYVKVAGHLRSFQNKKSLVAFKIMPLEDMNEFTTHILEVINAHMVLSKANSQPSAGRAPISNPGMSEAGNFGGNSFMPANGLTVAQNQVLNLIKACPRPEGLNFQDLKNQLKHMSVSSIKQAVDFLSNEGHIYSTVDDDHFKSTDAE
UniProt P49736: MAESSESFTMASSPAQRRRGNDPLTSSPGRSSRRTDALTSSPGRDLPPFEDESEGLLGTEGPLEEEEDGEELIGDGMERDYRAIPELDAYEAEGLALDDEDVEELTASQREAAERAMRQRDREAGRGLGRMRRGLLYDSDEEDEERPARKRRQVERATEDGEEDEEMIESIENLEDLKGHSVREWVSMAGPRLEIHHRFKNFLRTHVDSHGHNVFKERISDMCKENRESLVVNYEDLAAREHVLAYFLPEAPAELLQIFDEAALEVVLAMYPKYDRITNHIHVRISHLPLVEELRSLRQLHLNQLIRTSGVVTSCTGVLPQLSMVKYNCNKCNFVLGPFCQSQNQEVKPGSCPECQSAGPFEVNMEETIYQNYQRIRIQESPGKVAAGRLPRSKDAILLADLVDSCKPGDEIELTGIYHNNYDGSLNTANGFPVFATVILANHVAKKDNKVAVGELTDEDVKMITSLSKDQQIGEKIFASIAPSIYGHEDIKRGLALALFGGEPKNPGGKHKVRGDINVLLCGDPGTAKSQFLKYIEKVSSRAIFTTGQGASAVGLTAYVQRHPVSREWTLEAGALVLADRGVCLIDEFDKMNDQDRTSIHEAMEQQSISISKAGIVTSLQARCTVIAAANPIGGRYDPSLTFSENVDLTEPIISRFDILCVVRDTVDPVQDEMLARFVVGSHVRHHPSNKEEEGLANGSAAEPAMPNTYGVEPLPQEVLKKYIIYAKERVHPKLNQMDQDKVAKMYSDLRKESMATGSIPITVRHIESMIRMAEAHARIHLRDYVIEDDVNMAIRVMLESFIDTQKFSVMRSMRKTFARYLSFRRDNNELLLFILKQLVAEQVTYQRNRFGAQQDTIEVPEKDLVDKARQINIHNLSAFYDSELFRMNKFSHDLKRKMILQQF

These are yes or no findings as the source states them, for the method shown. Binding seen in cells or lysates may run through a third protein. Some binding calls cover weakened binding; strength is not graded here. Sequences can lack the tags named with a protein.

B1: RecQL4, Venus fusion (protein, UniProt O94761 1-1208)
chain: MERLRDVRERLQAWERAFRRQRGRRPSQDDVEAAPEETRALYREYRTLKRTTGQAGGGLRSSESLPAAAEEAPEPRCWGPHLNRAATKSPQSTPGRSRQGSVPDYGQRLKANLKGTLQAGPALGRRPWPLGRASSKASTPKPPGTGPVPSFAEKVSDEPPQLPEPQPRPGRLQHLQASLSQRLGSLDPGWLQRCHSEVPDFLGAPKACRPDLGSEESQLLIPGESAVLGPGAGSQGPEASAFQEVSIRVGSPQPSSSGGEKRRWNEEPWESPAQVQQESSQAGPPSEGAGAVAVEEDPPGEPVQAQPPQPCSSPSNPRYHGLSPSSQARAGKAEGTAPLHIFPRLARHDRGNYVRLNMKQKHYVRGRALRSRLLRKQAWKQKWRKKGECFGGGGATVTTKESCFLNEQFDHWAAQCPRPASEEDTDAVGPEPLVPSPQPVPEVPSLDPTVLPLYSLGPSGQLAETPAEVFQALEQLGHQAFRPGQERAVMRILSGISTLLVLPTGAGKSLCYQLPALLYSRRSPCLTLVVSPLLSLMDDQVSGLPPCLKAACIHSGMTRKQRESVLQKIRAAQVHVLMLTPEALVGAGGLPPAAQLPPVAFACIDEAHCLSQWSHNFRPCYLRVCKVLRERMGVHCFLGLTATATRRTASDVAQHLAVAEEPDLHGPAPVPTNLHLSVSMDRDTDQALLTLLQGKRFQNLDSIIIYCNRREDTERIAALLRTCLHAAWVPGSGGRAPKTTAEAYHAGMCSRERRRVQRAFMQGQLRVVVATVAFGMGLDRPDVRAVLHLGLPPSFESYVQAVGRAGRDGQPAHCHLFLQPQGEDLRELRRHVHADSTDFLAVKRLVQRVFPACTCTCTRPPSEQEGAVGGERPVPKYPPQEAEQLSHQAAPGPRRVCMGHERALPIQLTVQALDMPEEAIETLLCYLELHPHHWLELLATTYTHCRLNCPGGPAQLQALAHRCPPLAVCLAQQLPEDPGQGSSSVEFDMVKLVDSMGWELASVRRALCQLQWDHEPRTGVRRGTGVLVEFSELAFHLRSPGDLTAEEKDQICDFLYGRVQARERQALARLRRTFQAFHSVAFPSCGPCLEQQDEERSTRLKDLLGRYFEEEEGQEPGGMEDAQGPEPGQARLQDWEDQVRCDIRQFLSLRPEEKFSSRAVARIFHGIGSPCYPAQVYGQDRRFWRKYLHLSFHALVGLATEELLQVAR
B2: Cdc45, Venus fusion (protein, UniProt O75419 1-566)
chain: MFVSDFRKEFYEVVQSQRVLLFVASDVDALCACKILQALFQCDHVQYTLVPVSGWQELETAFLEHKEQFHYFILINCGANVDLLDILQPDEDTIFFVCDTHRPVNVVNVYNDTQIKLLIKQDDDLEVPAYEDIFRDEEEDEEHSGNDSDGSEPSEKRTRLEEEIVEQTMRRRQRREWEARRRDILFDYEQYEYHGTSSAMVMFELAWMLSKDLNDMLWWAIVGLTDQWVQDKITQMKYVTDVGVLQRHVSRHNHRNEDEENTLSVDCTRISFEYDLRLVLYQHWSLHDSLCNTSYTAARFKLWSVHGQKRLQEFLADMGLPLKQVKQKFQAMDISLKENLREMIEESANKFGMKDMRVQTFSIHFGFKHKFLASDVVFATMSLMESPEKDGSGTDHFIQALDSLSRSNLDKLYHGLELAKKQLRATQQTIASCLCTNLVISQGPFLYCSLMEGTPDVMLFSRPASLSLLSKHLLKSFVCSTKNRRCKLLPLVMAAPLSMEHGTVTVVGIPPETDSSDRKNFFGRAFEKAAESTSSRMLHNHFDLSVIELKAEDRSKFLDALISLLS
B3: Mcm5, Venus fusion (protein, UniProt P33992 1-734)
chain: MSGFDDPGIFYSDSFGGDAQADEGQARKSQLQRRFKEFLRQYRVGTDRTGFTFKYRDELKRHYNLGEYWIEVEMEDLASFDEDLADYLYKQPAEHLQLLEEAAKEVADEVTRPRPSGEEVLQDIQVMLKSDASPSSIRSLKSDMMSHLVKIPGIIIAASAVRAKATRISIQCRSCRNTLTNIAMRPGLEGYALPRKCNTDQAGRPKCPLDPYFIMPDKCKCVDFQTLKLQELPDAVPHGEMPRHMQLYCDRYLCDKVVPGNRVTIMGIYSIKKFGLTTSRGRDRVGVGIRSSYIRVLGIQVDTDGSGRSFAGAVSPQEEEEFRRLAALPNVYEVISKSIAPSIFGGTDMKKAIACLLFGGSRKRLPDGLTRRGDINLLMLGDPGTAKSQLLKFVEKCSPIGVYTSGKGSSAAGLTASVMRDPSSRNFIMEGGAMVLADGGVVCIDEFDKMREDDRVAIHEAMEQQTISIAKAGITTTLNSRCSVLAAANSVFGRWDETKGEDNIDFMPTILSRFDMIFIVKDEHNEERDVMLAKHVITLHVSALTQTQAVEGEIDLAKLKKFIAYCRVKCGPRLSAEAAEKLKNRYIIMRSGARQHERDSDRRSSIPITVRQLEAIVRIAEALSKMKLQPFATEADVEEALRLFQVSTLDAALSGTLSGVEGFTSQEDQEMLSRIEKQLKRRFAIGSQVSEHSIIKDFTKQKYPEHAIHKVLQLMLRRGEIQHRMQRKVLYRLK
B4: Mcm5 fluorescent fusion protein of the FRET assays with Cdc45 fusion proteins (Supplementary Figure S11) (protein, UniProt P33992 1-734)
chain: MSGFDDPGIFYSDSFGGDAQADEGQARKSQLQRRFKEFLRQYRVGTDRTGFTFKYRDELKRHYNLGEYWIEVEMEDLASFDEDLADYLYKQPAEHLQLLEEAAKEVADEVTRPRPSGEEVLQDIQVMLKSDASPSSIRSLKSDMMSHLVKIPGIIIAASAVRAKATRISIQCRSCRNTLTNIAMRPGLEGYALPRKCNTDQAGRPKCPLDPYFIMPDKCKCVDFQTLKLQELPDAVPHGEMPRHMQLYCDRYLCDKVVPGNRVTIMGIYSIKKFGLTTSRGRDRVGVGIRSSYIRVLGIQVDTDGSGRSFAGAVSPQEEEEFRRLAALPNVYEVISKSIAPSIFGGTDMKKAIACLLFGGSRKRLPDGLTRRGDINLLMLGDPGTAKSQLLKFVEKCSPIGVYTSGKGSSAAGLTASVMRDPSSRNFIMEGGAMVLADGGVVCIDEFDKMREDDRVAIHEAMEQQTISIAKAGITTTLNSRCSVLAAANSVFGRWDETKGEDNIDFMPTILSRFDMIFIVKDEHNEERDVMLAKHVITLHVSALTQTQAVEGEIDLAKLKKFIAYCRVKCGPRLSAEAAEKLKNRYIIMRSGARQHERDSDRRSSIPITVRQLEAIVRIAEALSKMKLQPFATEADVEEALRLFQVSTLDAALSGTLSGVEGFTSQEDQEMLSRIEKQLKRRFAIGSQVSEHSIIKDFTKQKYPEHAIHKVLQLMLRRGEIQHRMQRKVLYRLK

For the first assay, the target named is T1, HROB fused to a carboxy-proximal Cerulean fluorescent protein (HROB-Cer) (human) (UniProt Q8N3J3).
T1 sequence: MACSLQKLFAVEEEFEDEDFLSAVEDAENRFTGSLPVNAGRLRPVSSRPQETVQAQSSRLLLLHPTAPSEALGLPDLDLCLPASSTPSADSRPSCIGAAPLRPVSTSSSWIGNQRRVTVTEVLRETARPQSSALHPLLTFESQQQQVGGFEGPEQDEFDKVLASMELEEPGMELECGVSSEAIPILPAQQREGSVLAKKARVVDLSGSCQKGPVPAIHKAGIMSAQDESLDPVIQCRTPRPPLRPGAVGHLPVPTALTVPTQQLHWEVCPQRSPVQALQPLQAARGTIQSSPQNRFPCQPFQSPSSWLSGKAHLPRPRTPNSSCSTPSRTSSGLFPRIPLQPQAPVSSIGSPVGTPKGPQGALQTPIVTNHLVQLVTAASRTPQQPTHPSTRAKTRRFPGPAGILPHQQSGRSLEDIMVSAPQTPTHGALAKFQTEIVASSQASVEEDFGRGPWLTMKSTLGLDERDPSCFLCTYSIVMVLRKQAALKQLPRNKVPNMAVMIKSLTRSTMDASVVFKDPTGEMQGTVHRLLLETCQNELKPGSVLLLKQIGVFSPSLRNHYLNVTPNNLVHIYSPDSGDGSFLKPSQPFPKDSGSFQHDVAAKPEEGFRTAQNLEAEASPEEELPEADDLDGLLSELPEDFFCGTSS
Put plainly: FRET or BRET; flow cytometry FRET assay on living HEp-2 cells 18-20 h after transient co-transfection of Cerulean and Venus fusion proteins; read-out: proportion of FRET-positive cells among Cer- and Ven-double-positive cells. (Bioluminescence resonance energy transfer reports proximity on the nanometre scale.)
With “RPA32, Venus fusion (from UniProt P15927 1-270)”, the binding entry is “binds”.

“Mcm2, Venus fusion (from UniProt P49736 1-904)”: the binding entry is on record as “binds”.

As to B1, the binding entry is reported as “no binding”.

For B2, the binding entry is “binds”.

B3: the binding entry is “binds”.

The target of the next assay is T2, Cdc45 fluorescent fusion protein of the FRET assays with Cdc45 fusion proteins (Supplementary Figure S11) (human) (UniProt O75419).
T2 sequence: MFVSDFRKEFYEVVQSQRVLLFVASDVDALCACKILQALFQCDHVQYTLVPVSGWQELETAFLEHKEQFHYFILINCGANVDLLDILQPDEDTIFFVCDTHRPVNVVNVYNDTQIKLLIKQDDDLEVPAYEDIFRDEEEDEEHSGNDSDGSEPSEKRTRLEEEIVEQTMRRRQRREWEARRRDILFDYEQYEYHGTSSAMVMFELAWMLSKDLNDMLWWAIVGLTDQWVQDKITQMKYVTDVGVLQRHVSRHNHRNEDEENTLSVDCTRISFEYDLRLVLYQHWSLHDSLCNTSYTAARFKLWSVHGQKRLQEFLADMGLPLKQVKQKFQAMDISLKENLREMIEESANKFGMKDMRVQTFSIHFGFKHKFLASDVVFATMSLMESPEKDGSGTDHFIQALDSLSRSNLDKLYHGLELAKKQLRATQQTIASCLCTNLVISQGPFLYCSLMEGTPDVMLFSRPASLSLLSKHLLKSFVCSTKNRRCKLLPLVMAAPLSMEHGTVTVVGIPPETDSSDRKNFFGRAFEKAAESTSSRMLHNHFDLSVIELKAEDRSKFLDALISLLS
The assay is described as above.
For the molecule B4, the binding entry is listed as “binds”.
